Data as given in a collection of fitness landscapes (doi:10.1038/s41467-024-54723-y).
Over roughly 18,000 sequences, “TetR repression strength (sort-seq, GFP reporter)” has its median near 0.23; the highest 2% begin near 0.68. Some of the results follow.

Biological target: TetR (class B, Tn10) (UniProt P04483)
Test: TetR repression strength (sort-seq, GFP reporter) (relative to tetO2 = 1); higher = stronger repression
Details: E. coli
In short: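 Repression strength is the top bin index plus one minus the read-weighted mean bin, relative to the unaltered operator's value. A low-copy library in E. coli SIG10-MAX randomized eight operator positions between a constitutive promoter and sfGFP, with TetR expressed constitutively; cells grew 5 h at 37 °C in LB with 50 µg/mL chloramphenicol and 10^6 were FACS-sorted into 13 bins that were each Illumina-sequenced. Three independent transformations were averaged, keeping only members with ≥30 reads in all replicates and CV ≤0.5.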

Sequence of UniProt P04483 (P04483 whole entry): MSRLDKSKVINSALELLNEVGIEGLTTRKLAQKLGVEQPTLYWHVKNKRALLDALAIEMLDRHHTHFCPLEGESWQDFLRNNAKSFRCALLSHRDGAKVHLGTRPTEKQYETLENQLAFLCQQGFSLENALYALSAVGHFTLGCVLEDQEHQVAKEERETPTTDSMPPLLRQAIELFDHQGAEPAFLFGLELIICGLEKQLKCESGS

Row | Sequence | TetR repression strength
1 | TCCCTTTCAGTAGTGGAGA | 0.249
2 | TCCCTTGAAGTGGCTGAGA | 0.373
3 | TCCCTATCAGTGTTCGAGA | 0.777
4 | TCCCCGAGAGTATAGGAGA | 0.383
5 | TCCCTAAGAGTCTTGGAGA | 0.101
6 | TCCCCGGGAGTCAAGGAGA | 0.295
7 | TCCCTTATAGTTACGGAGA | 0.166
8 | TCCCATGAAGTGCCAGAGA | 0.228
9 | TCCCATTAAGTGTGCGAGA | 0.23
10 | TCCCTTTGAGTTATAGAGA | 0.256
11 | TCCCCGTTAGTTCGAGAGA | 0.171
12 | TCCCATAAAGTCACCGAGA | 0.289
13 | TCCCTGTGAGTCATGGAGA | 0.0807
14 | TCCCTAATAGTATATGAGA | 0.305
15 | TCCCGTCCAGTGGCCGAGA | 0.207
16 | TCCCGAACAGTAAAAGAGA | 0.286
17 | TCCCGTGGAGTTAGTGAGA | 0.276
18 | TCCCGTGAAGTTCCGGAGA | 0.205
19 | TCCCAGCAAGTGAGTGAGA | 0.201
20 | TCCCGCGGAGTAGAGGAGA | 0.389
21 | TCCCAATGAGTGTAGGAGA | 0.186
22 | TCCCACCCAGTTCCTGAGA | 0.322
23 | TCCCGGTCAGTGAGTGAGA | 0.463
24 | TCCCAAGGAGTGCTTGAGA | 0.139
25 | TCCCGCTCAGTAGCTGAGA | 0.197
26 | TCCCGGGCAGTTGCAGAGA | 0.509

Row | Sequence | TetR repression strength
27 | TCCCCTACAGTCAATGAGA | 0.166
28 | TCCCCACAAGTATCCGAGA | 0.296
29 | TCCCCGGGAGTAGACGAGA | 0.238
30 | TCCCCAAAAGTGTGGGAGA | 0.821
31 | TCCCTTTTAGTCGTTGAGA | 0.161
32 | TCCCAAAAAGTCTTCGAGA | 0.286
33 | TCCCAGGTAGTTGTCGAGA | 0.0795
34 | TCCCGTTAAGTATACGAGA | 0.126
35 | TCCCCTTAAGTGCAGGAGA | 0.141
36 | TCCCTTCTAGTCCCCGAGA | 0.433
37 | TCCCAAGTAGTCAATGAGA | 0.663
38 | TCCCGCGTAGTTGTAGAGA | 0.542
39 | TCCCGCCGAGTGATCGAGA | 0.11
40 | TCCCCTAAAGTGTGTGAGA | 0.121
41 | TCCCAGGCAGTCAAGGAGA | 0.288
42 | TCCCGACTAGTGTGCGAGA | 0.399
43 | TCCCGTCAAGTCGTCGAGA | 0.0507
44 | TCCCGCCAAGTTGACGAGA | 0.0287
45 | TCCCTTGCAGTGATGGAGA | 0.268
46 | TCCCGCAGAGTGGCAGAGA | 0.139
47 | TCCCACTCAGTGGCGGAGA | 0.67
48 | TCCCCTATAGTGGTAGAGA | 0.84
49 | TCCCGACAAGTGGTAGAGA | 0.247
50 | TCCCGATGAGTTAGGGAGA | 0.296
51 | TCCCTACCAGTGTCTGAGA | 0.238
52 | TCCCTCTCAGTTAGTGAGA | 0.339

Row | Sequence | TetR repression strength
53 | TCCCATTGAGTTCAGGAGA | 0.101
54 | TCCCCACGAGTGAGTGAGA | 0.223
55 | TCCCAGACAGTCATTGAGA | 0.375
56 | TCCCATACAGTTATGGAGA | 0.233
57 | TCCCGTAGAGTGGCAGAGA | 0.243
58 | TCCCACTTAGTGCAGGAGA | 0.0159
59 | TCCCAGCGAGTCGCGGAGA | 0.175
60 | TCCCCTACAGTTGACGAGA | 0.226
61 | TCCCGTCAAGTAGATGAGA | 0.42
62 | TCCCGTTGAGTGGCTGAGA | 0.0518
63 | TCCCCAGGAGTCTAGGAGA | 0.284
64 | TCCCTTTTAGTCAGCGAGA | 0.317
65 | TCCCCAACAGTGCACGAGA | 0.221
66 | TCCCGCTCAGTTGTAGAGA | 0.421
67 | TCCCTAAGAGTAGGAGAGA | 0.104
68 | TCCCTGAAAGTGGGGGAGA | 0.18
69 | TCCCTAAAAGTGAAAGAGA | 0.523
70 | TCCCTGTTAGTTGCCGAGA | 0.211
71 | TCCCGACGAGTAGCGGAGA | 0.32
72 | TCCCGCAGAGTCGTAGAGA | 0.0766
73 | TCCCCGCTAGTGTGGGAGA | 0.309
74 | TCCCAGCAAGTACTCGAGA | 0.594
75 | TCCCAAAAAGTACAAGAGA | 0.397
76 | TCCCTCTTAGTGGGGGAGA | 0.296
77 | TCCCGGCTAGTGTATGAGA | 0.561
78 | TCCCCAGGAGTTAGAGAGA | 0.315

Row | Sequence | TetR repression strength
79 | TCCCCCGGAGTGCTAGAGA | 0.199
80 | TCCCTTACAGTGGCCGAGA | 0.336
81 | TCCCGGCGAGTGCCCGAGA | 0.174
82 | TCCCGAGGAGTGATTGAGA | 0.331
83 | TCCCGAATAGTGGTTGAGA | 0.256
84 | TCCCATTAAGTGTGTGAGA | 0.292
85 | TCCCGGACAGTCGCGGAGA | 0.0765
86 | TCCCATATAGTTTAGGAGA | 0.0773
87 | TCCCGGTTAGTGTGAGAGA | 0.0331
88 | TCCCTAGGAGTTTGCGAGA | 0.194
89 | TCCCAATGAGTAAGCGAGA | 0.437
90 | TCCCAAGGAGTGTGCGAGA | 0.239
91 | TCCCGGTTAGTACGTGAGA | 0.0126
92 | TCCCGGCCAGTTATTGAGA | 0.378
93 | TCCCGGTAAGTGATAGAGA | 0.609
94 | TCCCTGTTAGTGAGGGAGA | 0.243
95 | TCCCTGTTAGTTGCAGAGA | 0.157
96 | TCCCGGAGAGTGAGGGAGA | 0.21
97 | TCCCTATTAGTCTGAGAGA | 0.188
98 | TCCCCTGGAGTGTTAGAGA | 0.0855
99 | TCCCTGAAAGTTAGCGAGA | 0.503
100 | TCCCTCTGAGTGTAGGAGA | 0.231
101 | TCCCATTGAGTGCGCGAGA | 0.265
102 | TCCCGCTGAGTAGCAGAGA | 0.572
